Assay results as given in PubChem BioAssay AID2147 (National Center for Advancing Translational Sciences (NCATS), 2009).
The whole screen tested about 230,000 compounds, of which about 3,600 (1.6%) were called active. The shares of active, inactive and inconclusive entries below differ from those in the screen. Calls come from the whole dose curve; as a rule, active = well fitted inhibition curve with a large enough effect (not every such curve was filed as active); inconclusive = small, poorly fitted or top-dose-only effect, or another doubt; inactive = no such curve, though single readings can be large or run the other way. Potencies beside an inconclusive call are fits to weak or partial responses and may not hold up.

Each compound was assayed against Lysine-specific demethylase 4E (Homo sapiens) (UniProt B2RXH2) (assay: qHTS Assay for Inhibitors of Human Jumonji Domain Containing 2E (JMJD2E)). Conditions: JMJD2E catalytic domain, FDH-coupled NADH fluorescence (FDH is formaldehyde dehydrogenase); series mostly up to 57.1 µM.
Chain of UniProt B2RXH2 (B2RXH2 whole entry, looked up, the tested form may be a part): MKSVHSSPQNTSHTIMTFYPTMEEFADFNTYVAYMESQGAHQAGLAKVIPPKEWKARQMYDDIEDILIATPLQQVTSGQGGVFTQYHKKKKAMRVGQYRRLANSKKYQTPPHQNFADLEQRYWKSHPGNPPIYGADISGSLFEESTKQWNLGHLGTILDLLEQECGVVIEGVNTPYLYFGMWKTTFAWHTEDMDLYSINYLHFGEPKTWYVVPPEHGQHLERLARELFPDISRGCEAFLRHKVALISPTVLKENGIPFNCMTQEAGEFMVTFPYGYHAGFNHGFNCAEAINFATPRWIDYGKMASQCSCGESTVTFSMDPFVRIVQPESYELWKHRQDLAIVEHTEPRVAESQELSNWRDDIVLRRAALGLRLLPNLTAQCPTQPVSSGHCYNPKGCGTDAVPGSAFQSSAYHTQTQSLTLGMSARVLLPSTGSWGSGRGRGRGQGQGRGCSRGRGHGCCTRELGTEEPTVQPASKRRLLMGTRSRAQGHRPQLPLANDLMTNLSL
Note: nearly all actives have a fitted effect of over 50% in size.
Potency is the fitted concentration of half-maximal effect; tags give direction and shape of the fitted curve.
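Throughout, for activity change, negative = inhibition: 0% = wells with enzyme and -100% = buffer wells without enzyme.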

Question: Which Potency does the source give for `COc1cc(C2Nc3cccc4cccc(c34)N2)ccc1OC(C)=O` here?
Answer: inactive

Question: With `COC(C(=O)Nc1ccc(Cl)cc1C)c1ccccc1` (configuration not stated) as the compound, how does the Potency read?
Answer: inactive

Question: Which Potency does the source give for `COc1ccc(C(c2c(N)[nH]c(=S)[nH]c2=O)c2c(N)[nH]c(=S)[nH]c2=O)cc1` here?
Answer: inactive

Question: How did the Potency turn out when `CCCCC(=O)Nc1nc(C)c(-c2csc(Nc3ccc(Cl)cc3)n2)s1` was run?
Answer: inconclusive: 39.8 µM [inhibitor, single point]

Question: `Cc1cc(NC(=O)c2cc(-c3ccc(C)c(C)c3)nc3ccccc23)no1` was tested. Which Potency did it give?
Answer: inconclusive: 28.2 µM [inhibitor, partial curve]

Question: `O=C1CCC(=O)N1c1ccc(-c2nc3sc4c(c3c(=O)o2)CCC4)cc1` was tested. Which Potency did it give?
Answer: inconclusive: 14.1 µM [inhibitor, partial curve]

Question: `CC(C)(c1ccccc1)c1ccc(OCCCNCCO)cc1` was tested. Which Potency did it give?
Answer: inconclusive: 22.4 µM [inhibitor, single point]

Question: With `C=CCn1c(O)c(N=NC(=S)Nc2cccc(OC)c2)c2ccccc21` as the compound, how does the Potency read?
Answer: inactive

Question: With `COc1cc2c(cc1OC)C1=C(C#N)COCN1CC2` as the compound, how does the Potency read?
Answer: inconclusive: 35.5 µM [inhibitor, single point]

Question: Which Potency does the source give for `CCOc1cc2[nH]c(=O)n(Cc3ccccc3)c(=O)c2cc1OCC` here?
Answer: inconclusive: 28.2 µM [inhibitor, single point]

Question: For `CCOC(=O)c1c(-c2cccc([N+](=O)[O-])c2)csc1NC(=O)C1CC1`, which Potency is on record?
Answer: inactive

Question: `O=c1cc(-c2ccc(Cl)c(Cl)c2)[nH][nH]1` was tested. Which Potency did it give?
Answer: inconclusive: 0.562 µM [inhibitor, partial curve, poor fit]

Question: How did the Potency turn out when `COc1ccc(-c2cc(C(F)F)n3ncc(C(=O)N4CCCc5ccccc54)c3n2)cc1` was run?
Answer: inconclusive: 39.8 µM [inhibitor, single point]

Question: `O=C(c1ccc(S(=O)(=O)N2CCCC2)cc1)N1CCC(CN2C(=O)c3cccc4cccc(c34)C2=O)CC1` was tested. Which Potency did it give?
Answer: inconclusive: 35.5 µM [inhibitor, partial curve]

Question: How did the Potency turn out when `O=C1CCCC2=C1C(c1ccc(O)c(O)c1)Nc1ccc3ncccc3c12` (configuration not stated) was run?
Answer: active: 25.1 µM

Question: For `CCOC(=O)N1CCC(=NNc2ccc(S(N)(=O)=O)cc2[N+](=O)[O-])CC1`, which Potency is on record?
Answer: inactive

Question: For `Cc1ccccc1NS(=O)(=O)c1ccc2[nH]cc(C(=O)N(C)Cc3ccco3)c(=O)c2c1`, which Potency is on record?
Answer: inconclusive: 39.8 µM [inhibitor, single point]

Question: With `CC(C)(C)c1nnc(N/N=C/c2cc(Br)ccc2O)n(N)c1=O` as the compound, how does the Potency read?
Answer: active: 22.4 µM

Question: Which Potency does the source give for `C=CCNC(=O)c1cc2c(=O)c3ccccc3oc2nc1C` here?
Answer: inconclusive: 39.8 µM [inhibitor, single point]

Question: How did the Potency turn out when `CCC(=O)Nc1ccc(NC(=O)c2cc3ccccc3o2)cc1` was run?
Answer: inconclusive: 39.8 µM [inhibitor, single point]

Question: With `COCCCNC(=O)c1cn(C)c(=O)c2cc(OC)c(OC)cc12` as the compound, how does the Potency read?
Answer: inconclusive: 35.5 µM [inhibitor, single point]

Question: For `CNC(=S)N(Cc1ccccc1)Cc1cccnc1`, which Potency is on record?
Answer: inactive

Question: Which Potency does the source give for `COCCN=c1scc(-c2cccs2)n1/N=C(\C)c1ccco1` here?
Answer: inactive

Question: Which Potency does the source give for `Cc1c(OCc2ccc(C(=O)O)o2)ccc2c3c(c(=O)oc12)CCC3` here?
Answer: inconclusive: 28.2 µM [inhibitor, partial curve]

Question: Which Potency does the source give for `COc1cc2[nH]c(=O)c(C(=O)NCCCN3CCOCC3)c(O)c2cc1OC` here?
Answer: inconclusive: 35.5 µM [inhibitor, partial curve]

Question: For `Cc1nc(N2CCOCC2)c2nc(-c3ccccc3)n(CCN3CCOCC3)c2n1`, which Potency is on record?
Answer: inconclusive: 22.4 µM [inhibitor, partial curve]

Question: With `COCc1nnc(NC(=O)c2ccc(S(=O)(=O)N(C)C3CCCCC3)cc2)o1` as the compound, how does the Potency read?
Answer: inconclusive: 35.5 µM [inhibitor, single point]

Question: `COC(=O)C1=CN(CCCN2CCCC2=O)C=C(C(=O)OC)C1c1ccccc1C(F)(F)F` was tested. Which Potency did it give?
Answer: inconclusive: 28.2 µM [inhibitor, partial curve]

Question: `COC(=O)c1ccccc1NC(=O)Cn1c(CCC(=O)O)ccc1-c1cccs1` was tested. Which Potency did it give?
Answer: inconclusive: 35.5 µM [inhibitor, single point]

Question: How did the Potency turn out when `Cc1ccc2c(c1)c1c3n2CCN(C(=O)Cn2c(-c4ccccc4)noc2=O)C3CCC1` (configuration not stated) was run?
Answer: inconclusive: 35.5 µM [inhibitor, single point]

Question: Which Potency does the source give for `CCOc1cc(C2C(C(=O)OC)=CN(C3CCCC3)C=C2C(=O)OC)cc(Br)c1O` here?
Answer: inconclusive: 22.4 µM [inhibitor, partial curve]

Question: `COC(=O)c1c(Cl)c2n3ccccc3c(C)c(-c3ccccc3)c-2c1C(=O)OC` was tested. Which Potency did it give?
Answer: inconclusive: 39.8 µM [inhibitor, single point]

Question: How did the activity change, negative = inhibition turn out when `CCOC(=O)CCCNC(=O)N1CCc2nc(-c3ccc(OC)cc3C)c3c(c2C1)CO[C@@H](c1ccccc1)C3` was run?
Answer: inactive: -5.77% [at 11.4 µM]

Question: For `N#CCCN(/N=C/c1cccnc1)C1=NS(=O)(=O)c2ccccc21`, which Potency is on record?
Answer: inactive

Question: How did the Potency turn out when `CCCNc1nc(C)cc(-c2cc(-c3ccccc3)on2)n1` was run?
Answer: inconclusive: 39.8 µM [inhibitor, single point]

Question: How did the Potency turn out when `CCCCOC(=O)Nc1ccc2c(C)cc(=O)oc2c1` was run?
Answer: inconclusive: 28.2 µM [inhibitor, partial curve]

Question: With `CC(C)(C)c1[nH]nc2c1C(C1C=CCCC1)C(C#N)=C(N)O2` (configuration not stated) as the compound, how does the Potency read?
Answer: inactive

Question: With `CCOC(=O)C1CCCN(C(=O)c2cccs2)C1` (configuration not stated) as the compound, how does the Potency read?
Answer: inactive

Question: For `c1ccc2c(c1)Cc1cc3ccccc3nc1-2`, which Potency is on record?
Answer: inconclusive: 25.1 µM [inhibitor, partial curve]

Question: With `Cc1ccn2cc(CC(=O)O)nc2c1` as the compound, how does the Potency read?
Answer: inconclusive: 31.6 µM [inhibitor, partial curve]

Question: With `N#C/C(=C\c1ccc(-c2cccc(Cl)c2)o1)C(=O)Nc1cccc2cccnc12` as the compound, how does the Potency read?
Answer: inactive

Question: With `CN(C)c1cccc(C(=O)OCC(=O)N(Cc2ccccc2)C2CCS(=O)(=O)C2)c1` (configuration not stated) as the compound, how does the Potency read?
Answer: inconclusive: 31.6 µM [inhibitor, single point]

Question: For `O=C(Nc1nc(-c2ccccn2)cs1)C1COc2ccccc2O1` (configuration not stated), which Potency is on record?
Answer: inactive

Question: `Cc1cccc(S(=O)(=O)N2CN(Cc3ccco3)c3nc4ccccc4nc32)c1` was tested. Which Potency did it give?
Answer: inconclusive: 28.2 µM [inhibitor, single point]

Question: For `COc1ccccc1CNC(=O)c1cccc(-c2ccc(C)c3ccccc23)n1`, which Potency is on record?
Answer: inconclusive: 25.1 µM [inhibitor, partial curve]

Question: With `O=C(NCCC1=CCCCC1)C(=O)NCC1OCCCN1S(=O)(=O)c1cc(F)ccc1F` (configuration not stated) as the compound, how does the Potency read?
Answer: inactive

Question: Which Potency does the source give for `CN(C)c1ccc(-c2ccc3ncnc(N4CCNCC4)c3c2)cc1` here?
Answer: inconclusive: 25.1 µM [inhibitor, single point]

Question: With `COc1ccc(CC(=O)N2CC(C)CC(C)C2)cc1` (configuration not stated) as the compound, how does the Potency read?
Answer: inactive

Question: How did the Potency turn out when `N#Cc1c(C(F)(F)F)cc(-c2cccc(Cl)c2)[nH]c1=O` was run?
Answer: inconclusive: 28.2 µM [inhibitor, partial curve]

Question: `COc1ccc(C(=O)c2oc3nc(C)cc(C)c3c2N)cc1` was tested. Which Potency did it give?
Answer: inconclusive: 35.5 µM [inhibitor, single point]

Question: With `CCC1CCCCN1CC(=O)Nc1cc(C)nn1-c1nc(C)cc(C)n1` (configuration not stated) as the compound, how does the Potency read?
Answer: inactive

Question: Which Potency does the source give for `COc1cc2c(cc1OC)C(=O)Cc1ccc3c(c1CN(C)CC2)OCO3` here?
Answer: inconclusive: 39.8 µM [inhibitor, single point]

Question: How did the Potency turn out when `COc1ccc(CNC(=O)CSc2nc3cccnc3s2)cc1` was run?
Answer: inactive

Question: With `COc1ccc(NS(=O)(=O)c2cccc(NC(=O)c3ccc(Cl)nc3)c2)cc1` as the compound, how does the Potency read?
Answer: inactive

Question: Which Potency does the source give for `COc1ccccc1C1C(C(=O)NCc2ccccc2)=C(C)Nc2ncnn21` (configuration not stated) here?
Answer: inconclusive: 31.6 µM [inhibitor, single point]

Question: How did the Potency turn out when `COc1cc2ccccc2cc1C(=O)NC(=S)Nc1cccc(C(=O)O)c1C` was run?
Answer: inconclusive: 39.8 µM [inhibitor, single point]

Question: Which Potency does the source give for `COc1ccc(/C=C(/NC(=O)c2cccs2)C(=O)Nc2ccc(C)cc2)cc1OC` here?
Answer: inactive

Question: Which Potency does the source give for `N/C(=N\OC(=O)C(c1ccccc1)c1ccccc1)c1cccnc1` here?
Answer: inactive

Question: For `Cc1cccc(C(C)C)c1NC(=O)COC(=O)Cc1ccsc1`, which Potency is on record?
Answer: inactive

Question: With `COc1cc(OC)cc(C(=O)NC(=S)NNC(=O)[C@H]2C[C@@H]2c2ccccc2)c1` as the compound, how does the Potency read?
Answer: inconclusive: 39.8 µM [inhibitor, single point]

Question: For `O=C(O)c1ccc(N/N=C/c2cc3cc4c(cc3nc2Cl)OCCO4)cc1`, which Potency is on record?
Answer: inactive

Question: How did the Potency turn out when `Cc1cc(NC(=O)CSc2nc(C3CC3)nc3sc(C)c(C)c23)no1` was run?
Answer: inactive

Question: Which Potency does the source give for `CCNC(=S)Nc1cccc(S(=O)(=O)NC2=NCCC2)c1` here?
Answer: inconclusive: 35.5 µM [inhibitor, single point]

Question: Which Potency does the source give for `O=C(CSc1nnc2c(n1)[nH]c1ccccc12)Nc1ccc2c(c1)OCO2` here?
Answer: inactive

Question: Which Potency does the source give for `O=c1c(-c2nc3ccccc3s2)cccn1Cc1ccc(Cl)cc1` here?
Answer: inconclusive: 28.2 µM [inhibitor, partial curve]

Question: With `CC(C)N1C(=O)CCC1C(=O)NC1CCCC1` (configuration not stated) as the compound, how does the Potency read?
Answer: inactive

Question: Which Potency does the source give for `Cc1ccc(-c2c3c(nc4sc(C(N)=O)c(N)c24)CCC3)cc1` here?
Answer: inconclusive: 39.8 µM [inhibitor, single point]

Question: Which Potency does the source give for `CCN(CC)C(=O)C1CCCN(Cc2ccc(F)c(F)c2)C1` (configuration not stated) here?
Answer: inconclusive: 39.8 µM [inhibitor, single point]

Question: For `COc1ccc(C(=O)CSc2ncn[nH]2)cc1OC`, which Potency is on record?
Answer: inconclusive: 39.8 µM [inhibitor, single point]

Question: For `COc1cc(/C=N/NC(=O)C(C)Nc2n[nH]c(=O)[nH]c2=O)cc(OC)c1O` (configuration not stated), which Potency is on record?
Answer: inactive

Question: How did the Potency turn out when `CC(C)=NNc1nc2c(c(=O)n(C)c(=O)n2C)n1CCc1ccccc1` was run?
Answer: inconclusive: 22.4 µM [inhibitor, partial curve]

Question: `O=C(NC1(O)C(=O)c2ccccc2C1=O)c1c(Cl)cccc1Cl` was tested. Which Potency did it give?
Answer: inconclusive: 20 µM [inhibitor, single point]
